Results are given in words; binding and its absence hold for the method and conditions named. For some assays here: Binding seen in cells or lysates may run through a third protein. Some binding calls cover weakened binding; strength is not graded here. Tags and fused reporters may be left off the sequences shown.
Assays:
[1] = molecular target: T1, Flag-GBP2 (full-length mouse guanylate-binding protein 2) (mouse) (UniProt Q9Z0E6); experiment: co-IP
T1 sequence: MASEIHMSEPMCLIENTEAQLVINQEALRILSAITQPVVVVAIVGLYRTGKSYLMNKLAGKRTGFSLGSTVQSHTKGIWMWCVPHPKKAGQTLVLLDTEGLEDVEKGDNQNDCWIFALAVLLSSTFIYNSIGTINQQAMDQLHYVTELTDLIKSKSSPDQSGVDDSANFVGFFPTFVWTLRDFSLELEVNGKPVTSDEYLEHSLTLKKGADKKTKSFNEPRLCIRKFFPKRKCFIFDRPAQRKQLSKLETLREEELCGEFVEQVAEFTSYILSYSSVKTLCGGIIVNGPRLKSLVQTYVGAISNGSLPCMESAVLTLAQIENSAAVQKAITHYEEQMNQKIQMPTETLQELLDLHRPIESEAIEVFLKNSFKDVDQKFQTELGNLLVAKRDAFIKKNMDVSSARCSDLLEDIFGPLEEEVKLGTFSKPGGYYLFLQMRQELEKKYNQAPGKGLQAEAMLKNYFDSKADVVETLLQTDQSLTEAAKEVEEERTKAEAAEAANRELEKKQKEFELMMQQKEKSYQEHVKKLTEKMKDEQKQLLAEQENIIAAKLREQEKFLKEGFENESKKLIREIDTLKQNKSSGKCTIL

[2] = molecular target: T2, GST-GBP2 (mouse (cDNA from RAW264.7 cells)) (UniProt Q9Z0E6); experiment: pull-down; both purified
T2 sequence: T1 sequence

[3] = molecular target: HA-PAPL (HA-tagged poly(A) polymerase catalytic subunit of ECTV) (ectromelia virus (ECTV-Moscow)) (UniProt Q8JLG4); experiment: co-IP

HA-PAPL (HA-tagged poly(A) polymerase catalytic subunit of ECTV) (from UniProt Q8JLG4 1-479)
binding [1]: binds

HA-glutaredoxin-1 (ECTV EVM053) (from UniProt Q8JLF5 1-108)
binding [1]: binds

HA-profilin (ECTV EVM141) (from UniProt Q8JL78 1-134)
binding [1]: binds

His-PAPL (His-tagged PAPL of ECTV, renatured) (from UniProt Q8JLG4 1-479)
binding [2]: binds

B1: Flag-GBP2 (full-length mouse guanylate-binding protein 2) (protein, UniProt Q9Z0E6 1-589)
chain: T1 sequence
binding [3]: binds

From paper PMC10648259
